# The other results are listed elsewhere or left out.
# System: T1, Caupolican (Caup) homeodomain DNA-binding domain
# T1 sequence: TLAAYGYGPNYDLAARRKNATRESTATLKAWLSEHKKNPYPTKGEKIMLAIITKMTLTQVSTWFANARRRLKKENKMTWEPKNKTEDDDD
# Assay: PBM E-score (8-mer, recovered from the published 9-mer minima) (E-score (dimensionless, -0.5 to 0.5)); Drosophila protein; higher = stronger relative binding preference, active = 0.31 or more
# In short: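 Caup's homeodomain DNA-binding domain (residues 214-303) was made by in vitro transcription and translation and applied at 100 nM to custom-designed protein binding microarrays. Each value is an enrichment score that gives relative binding preference for a short DNA word, with higher meaning stronger. The 8-mer values were recovered from published 9-mer scores, each of which was the minimum of its two constituent 8-mer scores. A cutoff of 0.31 marks candidate sites.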
row,Sequence,PBM E-score
1,GTTGTAAA,inactive: 0.279
2,ATATGATG,inactive: 0.183
3,TCCTAAGA,inactive: -0.0374
4,CGTCGGTA,inactive: -0.0821
5,AGTCACCC,inactive: -0.129
6,GAATAAAA,inactive: 0.0346
7,AATGAAGT,inactive: 0.0706
8,TCAAATGA,inactive: 0.062
9,ATATCGGG,inactive: -0.0323
10,ACGGCGAG,inactive: -0.0783
11,GGACTCTA,inactive: -0.0786
12,ACCACGTG,inactive: 0.0775
13,ACGTGTAG,active: 0.321
14,GCATCCCC,inactive: -0.194
15,GCATACAA,inactive: 0.247
16,AACGGGAA,≥ -0.00669
17,CTGAAGTC,inactive: -0.0729
18,ACTCTAAA,inactive: 0.0521
19,CTACCGCA,inactive: -0.0468
20,AAGAGGTG,inactive: -0.00252
21,ATTAAGTC,inactive: 0.0731
22,CATAATCG,inactive: 0.173
23,ACTACTAG,inactive: 0.189
24,AGGTATTA,inactive: 0.144
25,TCGGCGAA,inactive: -0.135

row,Sequence,PBM E-score
1,GCTTGCCA,inactive: -0.0848
2,AGCGCGCT,inactive: -0.0892
3,GCCCTGCC,inactive: -0.238
4,CCCGGCAA,inactive: -0.137
5,AGGTGAGG,inactive: -0.189
6,CCGGCCGG,inactive: -0.301
7,CAATACGC,inactive: -0.00448
8,CTGAACGC,inactive: -0.106
9,AGAAGTCC,inactive: -0.112
10,GGTGACAA,inactive: 0.254
11,TTCCTAAA,inactive: 0.035
12,GCATCACC,inactive: -0.128
13,ATATCCAT,inactive: 0.135
14,AGATCTAT,≥ 0.126
15,AATTGGTC,inactive: 0.117
16,CACGTCAA,inactive: 0.143
17,CTCTTCCC,inactive: -0.0949
18,CAGGAACC,inactive: -0.0573
19,AGCGTGAC,inactive: 0.0217
20,ATACTGGG,inactive: -0.00669
21,AACTAGTC,inactive: 0.197
22,AACGATCG,inactive: 0.0403
23,ACCCAAGT,≥ 0.0182
24,AGGAGGAA,inactive: -0.0242
25,AACCACCT,inactive: -0.0101

row,Sequence,PBM E-score
1,CGCTGGTA,inactive: 0.0151
2,ACGCCATG,inactive: 0.0924
3,AAGCTTGG,inactive: -0.099
4,ACGTCAAA,≥ 0.143
5,CACCCTTA,inactive: -0.0688
6,GTATGATA,inactive: 0.242
7,GCCAGGCA,inactive: -0.208
8,GACGTACC,inactive: -0.0787
9,ACGCTAGG,inactive: -0.174
10,CTTTCGTA,inactive: -0.00453
11,CGGTCCAG,inactive: -0.162
12,AACAACGC,inactive: 0.182
13,ATATATGA,inactive: 0.252
14,AGCCTAAT,inactive: 0.0704
15,AATATTAA,inactive: 0.153
16,CCCTTACC,inactive: -0.0569
17,ACGAACCG,inactive: -0.0561
18,AGTGCTGA,inactive: 0.0135
19,ACGGCGGC,inactive: -0.283
20,ATTAAAGG,inactive: -0.0169
21,AGCTCTTG,inactive: 0.00429
22,ATTTCCAC,inactive: 0.0863
23,CGGGTACC,inactive: -0.0645
24,ATCCGTCC,inactive: -0.0336
25,GAAACTTC,inactive: -0.0761

row,Sequence,PBM E-score
1,AATAACTC,inactive: 0.0581
2,AATAGTTC,inactive: 0.151
3,ACCGGTGC,inactive: -0.201
4,GCATTGCC,inactive: -0.0319
5,CGCGGAAG,inactive: -0.201
6,GGAACGTA,inactive: -0.054
7,GGATCCAA,inactive: 0.00972
8,AAGTATCG,inactive: 0.134
9,CCCAGCCC,inactive: -0.288
10,CCGCTAAA,inactive: -0.0666
11,CATGATGA,inactive: 0.194
12,TACGCGAA,inactive: 0.0654
13,AGCATGTG,inactive: 0.222
14,TTGCACAA,≥ 0.182
15,CGATCATC,inactive: 0.0443
16,AGGCTAGG,inactive: -0.17
17,CCTTAGGA,inactive: -0.109
18,AATCCAGT,inactive: 0.0433
19,CAACAGGC,inactive: -0.0073
20,CGGAGGAA,inactive: -0.0918
21,TGGCAACA,≥ 0.153
22,ATTGTATA,inactive: 0.259
23,AAGGGGGA,inactive: -0.203
24,AGGTCTTG,inactive: -0.0443
25,TAGCTCAA,inactive: -0.087

row,Sequence,PBM E-score
1,TACCGTCA,inactive: -0.117
2,AAAGTTGC,inactive: -0.0584
3,CCTGGCGA,inactive: -0.165
4,ACCGTTTG,inactive: -0.0923
5,AGGGGTCC,inactive: -0.228
6,AGGGCCCC,inactive: -0.248
7,CGCCCAGA,inactive: -0.192
8,TGAGCGCA,inactive: -0.0868
9,GGCTTAAA,inactive: -0.0788
10,GCACTCAC,inactive: -0.0914
11,GCGAGCGC,inactive: -0.236
12,GACTTCAC,inactive: -0.0647
13,ATCCTTCA,inactive: -0.0121
14,CATTGGGC,inactive: -0.166
15,AAAACAAT,inactive: 0.177
16,CGTCCACC,inactive: -0.142
17,GGTAAGGA,inactive: 0.0232
18,ATTGCTTG,inactive: 0.132
19,TGAAGCCA,inactive: -0.0494
20,AAGCTGGT,inactive: -0.0354
21,CCACGTTC,inactive: -0.0535
22,ATAACAGC,inactive: 0.148
23,CTCTCAAA,inactive: -0.0152
24,TAGTTGAA,inactive: 0.0189
25,TATAGGCA,inactive: 0.0331

row,Sequence,PBM E-score
1,AAGTACCA,inactive: 0.195
2,AGACTCCA,inactive: -0.0865
3,AATAATAA,inactive: 0.15
4,TCACGCCA,inactive: -0.0512
5,GTCCAAGA,inactive: -0.0635
6,CACGATAC,inactive: 0.13
7,GCGTTTTA,inactive: -0.0186
8,CAGCCGAG,inactive: -0.176
9,CCATTTCC,inactive: 0.0359
10,AATTAAAT,inactive: 0.0955
11,ACGTAATG,inactive: 0.16
12,AAACAGAT,≥ 0.185
13,AGCTTTGG,inactive: -0.137
14,GTTCGACA,inactive: 0.274
15,CAATATCC,inactive: 0.053
16,AGTGCGGA,inactive: -0.0562
17,AGGGCCAC,inactive: -0.151
18,CCGGCTCC,inactive: -0.317
19,CTGTCTCA,inactive: 0.0247
20,GCGAAGCC,inactive: -0.24
21,CCGAAAAG,inactive: -0.0427
22,AGGGTCCC,inactive: -0.207
23,ATCCCTGA,inactive: -0.0475
24,GGAGAACC,inactive: -0.146
25,AGGCGCGG,inactive: -0.21

row,Sequence,PBM E-score
1,TAAACTTA,inactive: 0.147
2,ATGGGAGA,inactive: -0.0478
3,CTGTTTCA,inactive: 0.0519
4,GTGCCAAC,inactive: -0.0293
5,AGATCCAT,inactive: -0.0856
6,CAGAGCGC,inactive: -0.198
7,AAAATCGT,inactive: 0.0463
8,ACACCCCG,inactive: -0.0107
9,CTGCTTGC,inactive: -0.077
10,CAATTGAG,inactive: 0.00079
11,GCCTAGGA,inactive: -0.129
12,AACTAACG,inactive: 0.00611
13,ACCTGTCT,inactive: 0.144
14,ACTTAGCT,inactive: -0.0662
15,ATCTGTAA,inactive: 0.15
16,GCCCCGCA,inactive: -0.239
17,CGGCTTTA,inactive: -0.0682
18,ACAGCACA,≥ 0.115
19,AGTCGACC,inactive: -0.155
20,GCATCCGA,inactive: -0.0881
21,GCGAGAAC,inactive: -0.0702
22,TACGGCCA,inactive: -0.211
23,CCCGAAGA,inactive: -0.133
24,CCAAACGA,inactive: -0.0262
25,ATGGGCAG,inactive: -0.132

row,Sequence,PBM E-score
1,AAAGTCGC,inactive: -0.109
2,AATCAGAG,inactive: 0.0745
3,CGATCGGC,inactive: -0.135
4,GGACTAAA,inactive: -0.0546
5,CGTACTGA,inactive: 0.0782
6,ACGACGTC,inactive: -0.0337
7,CAAGAGAA,inactive: 0.139
8,CGCCCCTA,inactive: -0.159
9,AACAGTAG,inactive: 0.0772
10,CGGACTGA,inactive: -0.0762
11,GTAACACA,inactive: 0.307
12,AGCAAGTC,inactive: -0.00143
13,ATAACTGC,inactive: 0.0232
14,ATTTTCTG,inactive: 0.00378
15,AAGCCCCA,inactive: -0.232
16,ACGGAGCT,inactive: -0.224
17,ATCTATCG,inactive: 0.0935
18,AAGTCCGG,inactive: -0.131
19,GTCATTGA,inactive: 0.185
20,AAATCGGA,inactive: 0.0449
21,GATTCTAA,inactive: 0.0682
22,AAAGGCTA,inactive: -0.0366
23,ACCTATTC,inactive: 0.00769
24,ACCGCACA,inactive: -0.00685
25,ACGTCGGC,inactive: -0.0877

row,Sequence,PBM E-score
1,CCTCCAAA,inactive: -0.127
2,GCGTCACA,inactive: 0.0119
3,TAAACTGA,inactive: 0.0935
4,CACACCGC,inactive: -0.0293
5,AACATAGG,inactive: 0.241
6,AGTAAGAG,inactive: -0.0386
7,ACAAGGGA,inactive: 0.209
8,GCTGCGCA,inactive: -0.222
9,AGTTGTAG,inactive: 0.232
10,ACGCTCGA,inactive: -0.0857
11,CCGTATTC,inactive: -0.00905
12,AGCGGCCT,inactive: -0.293
13,AGCTGACA,inactive: 0.108
14,CCTTTGCA,inactive: -0.0006
15,GCTAAGTA,inactive: 0.091
16,GAGAAGCA,inactive: -0.0117
17,CTAATAAA,inactive: 0.134
18,AGGCGAAC,inactive: -0.03
19,GACGCCCA,inactive: -0.142
20,AACTAAGG,inactive: -0.015
21,AAGGCGTG,inactive: -0.0377
22,CGACCCTC,inactive: -0.203
